# Laboratory results: patent publication US12060334B2, “3-substituted phenazine derivatives as antimicrobial agents” (University of Florida Research Foundation, Incorporated, priority 2021, dated 2024)
# How the values were obtained:
# [1] = test system: E. faecalis OG1RF; assay: MIC susceptibility assay (broth microdilution); conditions: 16 h
# [2] = test system: human red blood cells; assay: Hemolysis assay with red blood cells; conditions: human RBCs, 1 hour, 37° C.
# [3] = test system: HeLa cells; assay: LDH release assay for HeLa cytotoxicity; conditions: read-out: HeLa Cell Cytotox. (IC50), 24-h, tested at 25, 50 and 100 μM
# [4] = test system: MRSA-1707; assay: MIC susceptibility assay (broth microdilution); conditions: planktonic growth inhibition, 16 h, 37° C.
# [5] = test system: HepG2 cells; assay: Alamar Blue cytotoxicity assay, HepG2; conditions: read-out: Hep G2 Cytotox. (IC50), 24-h
# [6] = test system: J774 MΦ; assay: Alamar Blue cytotoxicity assay, J774 macrophages; conditions: read-out: J774 MΦ Cytotox. (IC50), 24-h
# [7] = test system: Mtb CDC1551; format: cell-based, Mycobacterium tuberculosis
smiles,measurement,setting,value
"Oc1cccc2nc3ccccc3nc12 [48 (1-OHP), 1-Hydroxyphenaizne, reference compound]",MIC E. faecalis OG1RF,"[1]; planktonic growth inhibition, 37° C.",>50 µM
"Oc1cc(Cl)cc2nc3ccc(I)cc3nc12 [Compound 27, 3-Chloro-8-iodophenazin-1-ol]",% Hemolysis at 200 μM,[2],1.9%
same,IC50,[3],100 µM
same,MIC MRSA-1707,[4],0.78 µM
"Oc1c(Br)c(Cl)c(Br)c2nc3ccc(Br)cc3nc12 [Compound 36, 2,4,8-Tribromo-3-chlorophenazin-1-ol]",% Hemolysis at 200 μM,[2],5.1%
same,MIC,"[1]; Enterococcus faecalis, OG1RF, read-out: MIC E. faecalis OG1RF",0.78 µM
"Oc1c(Br)c(Cl)c(Br)c2nc3c(Br)cccc3nc12 [Compound 35, 2,4,6-Tribromo-3-chlorophenazin-1-ol]",% Hemolysis at 200 μM,[2],≤1%
same,IC50,[5],> 200 µM
same,IC50,[6],> 200 µM
same,IC50,[3],100 µM
"Cc1c(Br)ccc2nc3c(O)cc(Cl)cc3nc12 [Compound 21, 7-Bromo-3-chloro-6-methylphenazin-1-ol]",% Hemolysis at 200 μM,[2],≤1%
same,IC50,[5],> 200 µM
same,IC50,[6],> 200 µM
same,IC50,[3],> 100 µM
same,MIC Mtb CDC1551,[7],3.27 µM
